What all share (conditions): remark: other sources report otherwise
The target of test [1] is MYC3-nLUC (Arabidopsis thaliana (Col-0)), Q9FIP9. Put plainly: split reporter; split luciferase complementation; nLUC and cLUC fusions coexpressed in N. benthamiana leaves; luciferase activity detected 2 days after infiltration.
Test [2] concerns the target cYFP-MYC3 (Arabidopsis thaliana (Col-0)), Q9FIP9. The test is described as follows: split reporter; bimolecular fluorescence complementation; cYFP and nYFP fusions coinfiltrated into N. benthamiana leaves; YFP fluorescence 2 days after infiltration.
The target in test [3] is MYC3-CFP (Arabidopsis thaliana (Col-0)), Q9FIP9. Put plainly: FRET or BRET; FRET-FLIM; CFP and YFP fusions coinfiltrated into N. benthamiana leaves; CFP fluorescence lifetime 2 days after coinfiltration. (BRET reads energy transfer from a luciferase to a nearby fluorophore.)
Test [4] addresses GFP-MYC3 (Arabidopsis thaliana (Col-0)), Q9FIP9. Put plainly: co-IP; total protein extracts of transgenic Arabidopsis plants expressing Myc- and GFP-tagged proteins; GFP-Trap agarose beads, 4 °C 1 h; 50 mM Tris-HCl pH 7.5, 150 mM NaCl, Triton X-100; blot with anti-GFP and anti-Myc.

These are yes or no findings as the source states them, for the method shown. Binding seen in cells or lysates may run through a third protein. Some binding calls cover weakened binding; strength is not graded here. Sequences can lack the tags named with a protein.

B1: cLUC-PPD1, Q7XA73 1-313 (protein)
chain: MDVGVSPAKSILAKPLKLLTEEDISQLTREDCRKFLKDKGMRRPSWNKSQAIQQVLSLKALYEPGDDSGAGIFRKILVSQPVNPPRVTTTLIEPSNELEACGRVSYPEDNGACHRMDSPRSAEFSGGSGHFVSEKDGHKTTISPRSPAETSELVGQMTIFYSGKVNVYDGIPPEKARSIMHFAANPIDLPENGIFASSRMISKLISKEKMMELPQKGLEKANSSRDSGMEGQANRKVSLQRYREKRKDRKFSKAKKCPGVASSSLEMFLNCQPRMKAAYSQNLGCTGSPLHSQSPESQTKSPNLSVDLNSEGI
Regarding B1, the binding result in test [1] was “binds”.

B2: nYFP-PPD1, Q7XA73 1-313 (protein)
chain: MDVGVSPAKSILAKPLKLLTEEDISQLTREDCRKFLKDKGMRRPSWNKSQAIQQVLSLKALYEPGDDSGAGIFRKILVSQPVNPPRVTTTLIEPSNELEACGRVSYPEDNGACHRMDSPRSAEFSGGSGHFVSEKDGHKTTISPRSPAETSELVGQMTIFYSGKVNVYDGIPPEKARSIMHFAANPIDLPENGIFASSRMISKLISKEKMMELPQKGLEKANSSRDSGMEGQANRKVSLQRYREKRKDRKFSKAKKCPGVASSSLEMFLNCQPRMKAAYSQNLGCTGSPLHSQSPESQTKSPNLSVDLNSEGI
B2: the binding entry in test [2] is “binds”.

B3: PPD1-YFP, Q7XA73 1-313 (protein)
chain: MDVGVSPAKSILAKPLKLLTEEDISQLTREDCRKFLKDKGMRRPSWNKSQAIQQVLSLKALYEPGDDSGAGIFRKILVSQPVNPPRVTTTLIEPSNELEACGRVSYPEDNGACHRMDSPRSAEFSGGSGHFVSEKDGHKTTISPRSPAETSELVGQMTIFYSGKVNVYDGIPPEKARSIMHFAANPIDLPENGIFASSRMISKLISKEKMMELPQKGLEKANSSRDSGMEGQANRKVSLQRYREKRKDRKFSKAKKCPGVASSSLEMFLNCQPRMKAAYSQNLGCTGSPLHSQSPESQTKSPNLSVDLNSEGI
B3: in test [3], the binding result is “binds”.

B4: Myc-PPD1, Q7XA73 1-313 (protein)
chain: MDVGVSPAKSILAKPLKLLTEEDISQLTREDCRKFLKDKGMRRPSWNKSQAIQQVLSLKALYEPGDDSGAGIFRKILVSQPVNPPRVTTTLIEPSNELEACGRVSYPEDNGACHRMDSPRSAEFSGGSGHFVSEKDGHKTTISPRSPAETSELVGQMTIFYSGKVNVYDGIPPEKARSIMHFAANPIDLPENGIFASSRMISKLISKEKMMELPQKGLEKANSSRDSGMEGQANRKVSLQRYREKRKDRKFSKAKKCPGVASSSLEMFLNCQPRMKAAYSQNLGCTGSPLHSQSPESQTKSPNLSVDLNSEGI
With B4, the binding result in test [4] is recorded as “binds”.

B5: nYFP-PPD2, Q8GY55 1-315 (protein)
chain: MDVGVTTAKSILEKPLKLLTEEDISQLTREDCRKFLKEKGMRRPSWNKSQAIQQVLSLKALYEPGDDSGAGILRKILVSQPPNPPRVTTTLIEPRNELEACGRIPLQEDDGACHRRDSPRSAEFSGSSGQFVADKDSHKTVSVSPRSPAETNAVVGQMTIFYSGKVNVYDGVPPEKARSIMHFAANPIDLPENGIFASSRMISKPMSKEKMVELPQYGLEKAPASRDSDVEGQANRKVSLQRYLEKRKDRRFSKTKKAPGVASSSLEMFLNRQPRMNAAYSQNLSGTGHCESPENQTKSPNISVDLNSDLNSEDN
Regarding B5, the binding entry in test [2] was “binds”.

B6: PPD2-YFP, Q8GY55 1-315 (protein)
chain: MDVGVTTAKSILEKPLKLLTEEDISQLTREDCRKFLKEKGMRRPSWNKSQAIQQVLSLKALYEPGDDSGAGILRKILVSQPPNPPRVTTTLIEPRNELEACGRIPLQEDDGACHRRDSPRSAEFSGSSGQFVADKDSHKTVSVSPRSPAETNAVVGQMTIFYSGKVNVYDGVPPEKARSIMHFAANPIDLPENGIFASSRMISKPMSKEKMVELPQYGLEKAPASRDSDVEGQANRKVSLQRYLEKRKDRRFSKTKKAPGVASSSLEMFLNRQPRMNAAYSQNLSGTGHCESPENQTKSPNISVDLNSDLNSEDN
Regarding B6, the binding result in test [3] was “binds”.

B7: Myc-PPD2, Q8GY55 1-315 (protein)
chain: MDVGVTTAKSILEKPLKLLTEEDISQLTREDCRKFLKEKGMRRPSWNKSQAIQQVLSLKALYEPGDDSGAGILRKILVSQPPNPPRVTTTLIEPRNELEACGRIPLQEDDGACHRRDSPRSAEFSGSSGQFVADKDSHKTVSVSPRSPAETNAVVGQMTIFYSGKVNVYDGVPPEKARSIMHFAANPIDLPENGIFASSRMISKPMSKEKMVELPQYGLEKAPASRDSDVEGQANRKVSLQRYLEKRKDRRFSKTKKAPGVASSSLEMFLNRQPRMNAAYSQNLSGTGHCESPENQTKSPNISVDLNSDLNSEDN
As to B7, the binding entry in test [4] is listed as “binds”.

B8: cLUC-PPD2, Q8GY55 1-315 (protein)
chain: MDVGVTTAKSILEKPLKLLTEEDISQLTREDCRKFLKEKGMRRPSWNKSQAIQQVLSLKALYEPGDDSGAGILRKILVSQPPNPPRVTTTLIEPRNELEACGRIPLQEDDGACHRRDSPRSAEFSGSSGQFVADKDSHKTVSVSPRSPAETNAVVGQMTIFYSGKVNVYDGVPPEKARSIMHFAANPIDLPENGIFASSRMISKPMSKEKMVELPQYGLEKAPASRDSDVEGQANRKVSLQRYLEKRKDRRFSKTKKAPGVASSSLEMFLNRQPRMNAAYSQNLSGTGHCESPENQTKSPNISVDLNSDLNSEDN
Turning to B8, in test [1], the binding result is on record as “binds”.

Source of the values: publication PMC7160150.
